{"source": "the supplement of paper PMC8728848", "experiment_in_all_cases": "glycan array binding signal (z-score within array); higher = stronger binding", "settings_in_all_cases": "glycan notation: IUPAC condensed, linker removed", "key": {"[1]": {"test_system": "GlcNAc(b1-3)Gal(b1-4)GlcNAc(b1-3)Gal(b1-4)GlcNAc(b1-3)Gal(b1-4)GlcNAc(b1-2)Man(a1-3)[GlcNAc(b1-3)Gal(b1-4)GlcNAc(b1-3)Gal(b1-4)GlcNAc(b1-3)Gal(b1-4)GlcNAc(b1-2)Man(a1-6)]Man(b1-4)GlcNAc(b1-4)[Fuc(a1-6)]GlcNAc", "how_it_was_run": "(§1)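 Negative Z-scores can be read as non-binding. The Z-score is calculated within each array and then averaged across arrays of one protein sequence at different concentrations or buffers and across linkers. Arrays, 3228 in all, were curated from the Consortium for Functional Glycomics database and kept only where the protein sequence was available.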"}, "[2]": {"test_system": "GlcNAc(b1-2)Man(a1-3)[GlcNAc(b1-2)Man(a1-6)]Man(b1-4)GlcNAc(b1-4)[Fuc(a1-6)]GlcNAc", "how_it_was_run": "as §1"}, "[3]": {"test_system": "GlcNAc(b1-2)Man(a1-3)[GlcNAc(b1-2)Man(a1-6)]Man(b1-4)GlcNAc(b1-4)GlcNAc", "how_it_was_run": "as §1"}, "[4]": {"test_system": "GlcNAc(b1-2)[GlcNAc(b1-4)]Man(a1-3)[GlcNAc(b1-4)][GlcNAc(b1-2)Man(a1-6)]Man(b1-4)GlcNAc(b1-4)GlcNAc", "how_it_was_run": "as §1"}, "[5]": {"test_system": "GlcNAc(b1-3)Gal(b1-3)GalNAc", "how_it_was_run": "as §1"}, "[6]": {"test_system": "GlcNAc(b1-3)Gal(b1-4)GlcNAc(b1-3)Gal(b1-4)GlcNAc(b1-2)Man(a1-3)[GlcNAc(b1-3)Gal(b1-4)GlcNAc(b1-3)Gal(b1-4)GlcNAc(b1-2)Man(a1-6)]Man(b1-4)GlcNAc(b1-4)[Fuc(a1-6)]GlcNAc", "how_it_was_run": "as §1"}, "[7]": {"test_system": "GlcNAc(b1-3)Gal(b1-4)GlcNAc(b1-3)Gal(b1-4)GlcNAc(b1-2)[GlcNAc(b1-3)Gal(b1-4)GlcNAc(b1-3)Gal(b1-4)GlcNAc(b1-6)]Man(a1-6)[GlcNAc(b1-3)Gal(b1-4)GlcNAc(b1-3)Gal(b1-4)GlcNAc(b1-2)Man(a1-3)]Man(b1-4)GlcNAc(b1-4)[Fuc(a1-6)]GlcNAc", "how_it_was_run": "as §1"}, "[8]": {"test_system": "GlcNAc(b1-3)Gal(b1-4)GlcNAc(b1-3)Gal(b1-4)GlcNAc(b1-3)Gal(b1-4)GlcNAc(b1-2)Man(a1-3)[GlcNAc(b1-3)Gal(b1-4)GlcNAc(b1-3)Gal(b1-4)GlcNAc(b1-3)Gal(b1-4)GlcNAc(b1-2)Man(a1-6)]Man(b1-4)GlcNAc(b1-4)GlcNAc", "how_it_was_run": "as §1"}, "[9]": {"test_system": "GlcNAc(b1-3)Gal(b1-4)GlcNAc(b1-3)Gal(b1-4)GlcNAc(b1-3)Gal(b1-4)GlcNAc(b1-2)[GlcNAc(b1-3)Gal(b1-4)GlcNAc(b1-3)Gal(b1-4)GlcNAc(b1-3)Gal(b1-4)GlcNAc(b1-6)]Man(a1-6)[GlcNAc(b1-3)Gal(b1-4)GlcNAc(b1-3)Gal(b1-4)GlcNAc(b1-3)Gal(b1-4)GlcNAc(b1-2)Man(a1-3)]Man(b1-4)GlcNAc(b1-4)[Fuc(a1-6)]GlcNAc", "how_it_was_run": "as §1"}, "[10]": {"test_system": "GlcNAc(b1-3)Gal(b1-4)GlcNAc(b1-2)[GlcNAc(b1-3)Gal(b1-4)GlcNAc(b1-6)]Man(a1-6)[GlcNAc(b1-3)Gal(b1-4)GlcNAc(b1-2)Man(a1-3)]Man(b1-4)GlcNAc(b1-4)GlcNAc", "how_it_was_run": "as §1"}}, "note": "The sample as a whole holds a higher share of the strongest signals than the screen did."}
{"substance": "Gal 3 (Homo sapiens) (chain not printed)", "values": [{"measurement": "glycan array binding signal (z-score)", "setting": "[1]", "value": 3.31}]}
{"substance": "Siglec-2 (Homo sapiens) (chain not printed)", "values": [{"measurement": "glycan array binding signal (z-score)", "setting": "[2]", "value": -0.015}]}
{"substance": "L-Ficolin (Homo sapiens) (chain not printed)", "values": [{"measurement": "glycan array binding signal (z-score)", "setting": "[3]", "value": -0.577}]}
{"substance": "Thrombomodulin Extracellular (Homo sapiens) (chain not printed)", "values": [{"measurement": "glycan array binding signal (z-score)", "setting": "[3]", "value": -0.338}, {"measurement": "glycan array binding signal (z-score)", "setting": "[4]", "value": 1.9}, {"measurement": "glycan array binding signal (z-score)", "setting": "[1]", "value": -0.079}]}
{"substance": "M-Ficolin (Homo sapiens) (chain not printed)", "values": [{"measurement": "glycan array binding signal (z-score)", "setting": "[2]", "value": -0.251}]}
{"substance": "Meso764 (Homo sapiens) (chain not printed)", "values": [{"measurement": "glycan array binding signal (z-score)", "setting": "[3]", "value": -0.482}]}
{"substance": "MBP (Homo sapiens) (chain not printed)", "values": [{"measurement": "glycan array binding signal (z-score)", "setting": "[5]", "value": 0.338}, {"measurement": "glycan array binding signal (z-score)", "setting": "[6]", "value": 5.2}, {"measurement": "glycan array binding signal (z-score)", "setting": "[7]", "value": 5.33}, {"measurement": "glycan array binding signal (z-score)", "setting": "[8]", "value": 5.17}, {"measurement": "glycan array binding signal (z-score)", "setting": "[1]", "value": 6.78}, {"measurement": "glycan array binding signal (z-score)", "setting": "[9]", "value": 5.42}]}
{"substance": "VWF (Homo sapiens) (chain not printed)", "values": [{"measurement": "glycan array binding signal (z-score)", "setting": "[5]", "value": -0.187}]}
{"substance": "M-Ficolin A256V (Homo sapiens) (chain not printed)", "values": [{"measurement": "glycan array binding signal (z-score)", "setting": "[5]", "value": -0.134}]}
{"substance": "M-Ficolin G221F A256V (Homo sapiens) (chain not printed)", "values": [{"measurement": "glycan array binding signal (z-score)", "setting": "[3]", "value": -0.255}]}
{"substance": "M-Ficolin G221F (Homo sapiens) (chain not printed)", "values": [{"measurement": "glycan array binding signal (z-score)", "setting": "[2]", "value": -0.17}]}
{"substance": "NCAM1 (Homo sapiens) (chain not printed)", "values": [{"measurement": "glycan array binding signal (z-score)", "setting": "[2]", "value": 0.202}]}
{"substance": "Gal 8-short (Homo sapiens) (chain not printed)", "values": [{"measurement": "glycan array binding signal (z-score)", "setting": "[5]", "value": 1.59}]}
{"substance": "FGF2 (chain not printed)", "values": [{"measurement": "glycan array binding signal (z-score)", "setting": "[10]", "value": 1.39}, {"measurement": "glycan array binding signal (z-score)", "setting": "[8]", "value": -0.461}]}
